T1: human IGFBP-1 (human, UniProt P08833 26-259)
T1 sequence (looked up): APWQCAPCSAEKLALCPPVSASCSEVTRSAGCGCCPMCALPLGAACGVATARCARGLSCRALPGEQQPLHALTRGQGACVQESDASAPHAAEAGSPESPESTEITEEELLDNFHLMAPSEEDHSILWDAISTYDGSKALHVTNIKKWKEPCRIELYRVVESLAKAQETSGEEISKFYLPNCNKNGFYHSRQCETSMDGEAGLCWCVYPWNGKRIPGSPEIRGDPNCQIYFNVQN

B1: wild-type IGF-1 displayed on phage (ligand)
chain: not shown
notes: range […]; double mutation restoring wild type; monovalent M13 display; also called IGF-1 WT
B2: F49A IGF-1 (purified soluble) (ligand)
chain: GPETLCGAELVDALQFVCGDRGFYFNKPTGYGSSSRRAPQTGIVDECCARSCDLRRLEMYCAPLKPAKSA
B3: F16A IGF-1 (purified soluble) (ligand)
chain: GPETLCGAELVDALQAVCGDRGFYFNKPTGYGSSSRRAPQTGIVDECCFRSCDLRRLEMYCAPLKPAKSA
B4: F25A IGF-1 (purified soluble) (ligand)
chain: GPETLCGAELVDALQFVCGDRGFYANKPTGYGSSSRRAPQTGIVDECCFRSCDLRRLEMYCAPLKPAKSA
B5: G1S-A70V IGF-1 (purified soluble) (ligand)
chain: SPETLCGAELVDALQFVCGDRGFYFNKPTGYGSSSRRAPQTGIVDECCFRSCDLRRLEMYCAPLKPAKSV
B6: P39A IGF-1 (purified soluble) (ligand)
chain: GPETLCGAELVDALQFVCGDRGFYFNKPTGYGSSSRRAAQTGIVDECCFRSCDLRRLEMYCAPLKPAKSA
B7: R36A IGF-1 (purified soluble) (ligand)
chain: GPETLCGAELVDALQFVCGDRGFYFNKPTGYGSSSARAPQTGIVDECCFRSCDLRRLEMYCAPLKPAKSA
B8: T4A IGF-1 (purified soluble) (ligand)
chain: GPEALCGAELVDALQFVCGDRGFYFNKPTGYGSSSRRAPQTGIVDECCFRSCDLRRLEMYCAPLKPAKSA
notes: made from the wild-type IGF-1 plasmid pBKIGF2B-f1-ori
B9: V11A IGF-1 (purified soluble) (ligand)
chain: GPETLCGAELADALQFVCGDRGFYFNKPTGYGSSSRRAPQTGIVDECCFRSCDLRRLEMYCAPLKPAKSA
B10: F16A/F49A IGF-1 (ligand)
chain: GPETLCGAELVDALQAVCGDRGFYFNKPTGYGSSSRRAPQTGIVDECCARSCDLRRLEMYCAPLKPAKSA
B11: D12K IGF-1 displayed on phage (ligand)
chain: not shown
notes: background and coat fusion not restated
B12: D12R IGF-1 displayed on phage (ligand)
chain: not shown
notes: as for B11
B13: Y31C IGF-1 (ligand)
chain: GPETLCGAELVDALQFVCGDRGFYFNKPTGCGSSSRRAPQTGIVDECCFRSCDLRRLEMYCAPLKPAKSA
modifications: coupled to the sensor chip through Cys31 by a disulfide linkage

Biological target: T2, recombinant human IGFBP-3 (human, UniProt P17936)
Experiment: phage ELISA: titration of phage displaying the IGF-1 variant on immobilized IGFBP-3; OD450

| Binder | EC50 (read off the curve) |
| --- | --- |
| B1 | ~2e+10 phage/ml |

Biological target: T1, human IGFBP-1
Experiment: BIAcore competition, 50 nM IGFBP-1 to immobilized Y31C IGF-1

| Binder | IC50 |
| --- | --- |
| B2 | 1600 nM |

Biological target: T1, human IGFBP-1
Experiment: competitive phage ELISA
Experimental: (§1) E. coli cells (XL1-Blue, Stratagene) freshly transformed with phagemid vector were grown overnight in 5 mL 2YT medium (Sambrook et al., supra) in the presence of M13-VCS helper phage (Stratagene). Phage particles were harvested and resuspended in PBS buffer as described in Lowman, H. B., “Phage Display of Peptide Libraries on Protein Scaffolds,” in Cabilly, S. (ed.), Combinatorial Peptide Library Protocols (Humana Press Inc.: Totowa, N.J., 1998), pp. 249-264. Then phage concentrations were normalized to yield a maximal ELISA signal of 0.2-0.4 for each mutant (Lowman, in Cabilly, S. (ed.), supra). Threefold serial dilutions of soluble competitor were prepared on non-absorbent microtiter plates (Nunc, F, 96 wells) with binding buffer (0.5% TWEEN 20%/PBS) containing phage at the previously determined concentrations. […] After blocking, the plates containing immobilized target were washed with 0.05% TWEEN™/PBS buffer and subsequently incubated with 80 μl/well of the premixed phage-competitor solutions for 1 hour at room temperature. […] IC₅₀ values were determined by fitting the binding data to a generic saturation curve (Lowman, in Cabilly, S. (ed.), supra). At least two individual clones of each IGF-1 mutant were assayed. Numbers in Table XIII represent mean±standard deviation of individually assessed IC₅₀ values.

| Binder | IC50 |
| --- | --- |
| B1 | 8.4 nM |

Biological target: T2, recombinant human IGFBP-3
T2 sequence (P17936 28-291 limits assumed): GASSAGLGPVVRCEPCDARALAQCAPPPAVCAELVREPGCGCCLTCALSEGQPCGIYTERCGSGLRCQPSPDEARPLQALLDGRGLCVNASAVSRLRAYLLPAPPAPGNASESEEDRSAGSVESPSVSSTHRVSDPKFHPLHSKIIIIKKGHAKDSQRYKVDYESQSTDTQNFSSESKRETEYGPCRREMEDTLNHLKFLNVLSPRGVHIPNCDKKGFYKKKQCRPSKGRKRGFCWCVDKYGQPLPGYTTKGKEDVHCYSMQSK
Experiment: competitive phage ELISA
Experimental: as §1

| Binder | IC50 |
| --- | --- |
| B1 | 1.01 nM |

Biological target: T1, human IGFBP-1
Experiment: BIAcore kinetics, IGF variant immobilized
Experimental: (§2) Carboxymethylated dextran biosensor chips (CM5, BIAcore Inc.) were activated with EDC (N-ethyl-N′-(3-dimethylaminopropyl)-carbodiimide hydrochloride) and NHS (N-hydroxysuccinimide) according to the supplier's instructions. For immobilization, IGF mutants in 20 mM sodium acetate, pH 4.8, were injected onto the biosensor chip at a concentration of 50 μg/ml to yield approximately 450-600 RU's (resonance-response units) of covalently-coupled protein. Unreacted groups were blocked with an injection of 1 M ethanolamine. […] Association rates (kₐ) and dissociation rates (kd) were calculated separately using a 1:1 Langmuir™ association model in the BIACORE™ evaluation software v. 3.0. The equilibrium dissociation constant (KD) was calculated as kd/kₐ.

| Binder | Kd | koff | kon |
| --- | --- | --- | --- |
| B3 | 321 nM | 0.00603 s⁻¹ | 19000 M⁻¹ s⁻¹ |
| B4 | 323 nM | 0.0049 s⁻¹ | 15000 M⁻¹ s⁻¹ |
| B2 | 913 nM | 0.0115 s⁻¹ | 12600 M⁻¹ s⁻¹ |
| B5 | 14 nM | 0.00045 s⁻¹ | 32000 M⁻¹ s⁻¹ |
| B6 | 13.6 nM | 0.00042 s⁻¹ | 31000 M⁻¹ s⁻¹ |
| B7 | 13.9 nM | 0.00056 s⁻¹ | 40000 M⁻¹ s⁻¹ |
| B8 | 90 nM | 0.00167 s⁻¹ | 19000 M⁻¹ s⁻¹ |
| B9 | 66.5 nM | 0.00123 s⁻¹ | 19000 M⁻¹ s⁻¹ |

Biological target: T2, recombinant human IGFBP-3
Experiment: BIAcore kinetics, IGF variant immobilized
Experimental: as §2

| Binder | Kd | koff | kon |
| --- | --- | --- | --- |
| B3 | 10.3 nM | 0.00114 s⁻¹ | 110000 M⁻¹ s⁻¹ |
| B10 | 99 nM | 0.00386 s⁻¹ | 40000 M⁻¹ s⁻¹ |
| B4 | 7.7 nM | 0.00118 s⁻¹ | 150000 M⁻¹ s⁻¹ |
| B2 | 6.3 nM | 0.00171 s⁻¹ | 270000 M⁻¹ s⁻¹ |
| B5 | 2.2 nM | 0.00063 s⁻¹ | 290000 M⁻¹ s⁻¹ |
| B6 | 2.2 nM | 0.0006 s⁻¹ | 270000 M⁻¹ s⁻¹ |
| B7 | 1.2 nM | 0.00047 s⁻¹ | 400000 M⁻¹ s⁻¹ |
| B8 | 3.1 nM | 0.00055 s⁻¹ | 180000 M⁻¹ s⁻¹ |
| B9 | 6.7 nM | 0.00209 s⁻¹ | 310000 M⁻¹ s⁻¹ |

Biological target: IGF type I receptor (UniProt P08069 31-1367)
UniProt P08069, sequence (P08069 31-1367): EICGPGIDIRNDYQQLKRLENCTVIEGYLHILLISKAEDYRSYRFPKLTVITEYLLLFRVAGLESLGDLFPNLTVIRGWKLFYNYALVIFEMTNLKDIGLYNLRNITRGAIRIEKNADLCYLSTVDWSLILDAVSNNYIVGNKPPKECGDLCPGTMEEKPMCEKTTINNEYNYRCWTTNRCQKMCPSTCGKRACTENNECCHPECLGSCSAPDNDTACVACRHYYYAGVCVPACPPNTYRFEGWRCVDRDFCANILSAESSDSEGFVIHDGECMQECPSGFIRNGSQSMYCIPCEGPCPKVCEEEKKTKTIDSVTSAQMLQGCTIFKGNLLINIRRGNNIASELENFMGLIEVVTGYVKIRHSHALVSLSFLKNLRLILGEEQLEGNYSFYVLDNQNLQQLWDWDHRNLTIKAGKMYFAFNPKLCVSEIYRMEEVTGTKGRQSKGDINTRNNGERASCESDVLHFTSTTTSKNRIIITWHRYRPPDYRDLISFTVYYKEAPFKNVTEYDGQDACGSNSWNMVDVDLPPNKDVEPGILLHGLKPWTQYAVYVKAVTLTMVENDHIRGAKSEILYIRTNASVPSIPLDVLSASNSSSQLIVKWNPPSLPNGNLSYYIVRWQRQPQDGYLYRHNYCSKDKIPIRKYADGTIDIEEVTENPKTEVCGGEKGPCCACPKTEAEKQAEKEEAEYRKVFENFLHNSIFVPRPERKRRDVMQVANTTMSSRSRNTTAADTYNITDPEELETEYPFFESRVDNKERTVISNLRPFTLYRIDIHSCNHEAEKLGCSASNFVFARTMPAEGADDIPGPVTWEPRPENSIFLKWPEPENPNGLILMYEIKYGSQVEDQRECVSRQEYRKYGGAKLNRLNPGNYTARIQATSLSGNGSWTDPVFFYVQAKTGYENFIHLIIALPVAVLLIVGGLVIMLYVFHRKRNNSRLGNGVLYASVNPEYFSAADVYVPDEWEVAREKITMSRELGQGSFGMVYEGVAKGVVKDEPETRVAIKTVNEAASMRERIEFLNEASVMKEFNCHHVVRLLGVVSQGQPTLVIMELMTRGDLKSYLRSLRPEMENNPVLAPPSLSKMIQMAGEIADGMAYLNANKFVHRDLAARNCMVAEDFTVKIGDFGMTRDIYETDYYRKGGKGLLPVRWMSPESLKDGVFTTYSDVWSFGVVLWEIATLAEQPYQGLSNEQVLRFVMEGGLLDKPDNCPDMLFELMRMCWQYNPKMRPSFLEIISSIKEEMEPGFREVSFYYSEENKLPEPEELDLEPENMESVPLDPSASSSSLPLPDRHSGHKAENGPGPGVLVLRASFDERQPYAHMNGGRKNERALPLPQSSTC
Experiment: cell-based or functional assay

| Binder | KIRA EC50 |
| --- | --- |
| B2 | 0.02 µg/mL |

Biological target: T1, human IGFBP-1
Experiment: phage ELISA: titration of phage displaying the IGF-1 variant on immobilized IGFBP-1; OD450

| Binder | EC50 (read off the curve) |
| --- | --- |
| B11 | ~2e+10 phage/ml |
| B12 | ~1e+10 phage/ml |
| B1 | ~1e+10 phage/ml |

Biological target: T1, human IGFBP-1
Experiment: BIAcore kinetics, Y31C coupled through Cys31

| Binder | Kd | koff | kon |
| --- | --- | --- | --- |
| B13 | 10 nM | 0.00038 s⁻¹ | 39000 M⁻¹ s⁻¹ |

Biological target: T1, human IGFBP-1
Experiment: BIAcore kinetics

| Binder | relative KD (mut/wt) |
| --- | --- |
| B3 | 25 |
| B4 | 25 |
| B2 | 70 |
| B5 | 1.1 |
| B6 | 1 |
| B7 | 1.1 |
| B8 | 6.9 |
| B9 | 5.1 |

Biological target: T2, recombinant human IGFBP-3
Experiment: BIAcore kinetics

| Binder | relative KD (mut/wt) |
| --- | --- |
| B3 | 6.9 |
| B4 | 5.1 |
| B2 | 4.2 |
| B5 | 1.5 |
| B6 | 1.5 |
| B7 | 0.8 |
| B8 | 2.1 |
| B9 | 4.5 |

From patent US20090011988A1 (Genentech, published 2009)
